Experimental findings from paper PMC4336329 (PLoS ONE, 2015) are described below.

The whole screen tested about 310,000 compounds, of which about 14,000 (4.5%) showed an effect of 50% or more. Effects have a minus sign here. The list shows a part of the results.
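Also: peak tail current of the secondary pulse compared with the same well before compound.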

Sequence of human ether-à-go-go-related gene (hERG) potassium channel (Q12809 whole entry, looked up): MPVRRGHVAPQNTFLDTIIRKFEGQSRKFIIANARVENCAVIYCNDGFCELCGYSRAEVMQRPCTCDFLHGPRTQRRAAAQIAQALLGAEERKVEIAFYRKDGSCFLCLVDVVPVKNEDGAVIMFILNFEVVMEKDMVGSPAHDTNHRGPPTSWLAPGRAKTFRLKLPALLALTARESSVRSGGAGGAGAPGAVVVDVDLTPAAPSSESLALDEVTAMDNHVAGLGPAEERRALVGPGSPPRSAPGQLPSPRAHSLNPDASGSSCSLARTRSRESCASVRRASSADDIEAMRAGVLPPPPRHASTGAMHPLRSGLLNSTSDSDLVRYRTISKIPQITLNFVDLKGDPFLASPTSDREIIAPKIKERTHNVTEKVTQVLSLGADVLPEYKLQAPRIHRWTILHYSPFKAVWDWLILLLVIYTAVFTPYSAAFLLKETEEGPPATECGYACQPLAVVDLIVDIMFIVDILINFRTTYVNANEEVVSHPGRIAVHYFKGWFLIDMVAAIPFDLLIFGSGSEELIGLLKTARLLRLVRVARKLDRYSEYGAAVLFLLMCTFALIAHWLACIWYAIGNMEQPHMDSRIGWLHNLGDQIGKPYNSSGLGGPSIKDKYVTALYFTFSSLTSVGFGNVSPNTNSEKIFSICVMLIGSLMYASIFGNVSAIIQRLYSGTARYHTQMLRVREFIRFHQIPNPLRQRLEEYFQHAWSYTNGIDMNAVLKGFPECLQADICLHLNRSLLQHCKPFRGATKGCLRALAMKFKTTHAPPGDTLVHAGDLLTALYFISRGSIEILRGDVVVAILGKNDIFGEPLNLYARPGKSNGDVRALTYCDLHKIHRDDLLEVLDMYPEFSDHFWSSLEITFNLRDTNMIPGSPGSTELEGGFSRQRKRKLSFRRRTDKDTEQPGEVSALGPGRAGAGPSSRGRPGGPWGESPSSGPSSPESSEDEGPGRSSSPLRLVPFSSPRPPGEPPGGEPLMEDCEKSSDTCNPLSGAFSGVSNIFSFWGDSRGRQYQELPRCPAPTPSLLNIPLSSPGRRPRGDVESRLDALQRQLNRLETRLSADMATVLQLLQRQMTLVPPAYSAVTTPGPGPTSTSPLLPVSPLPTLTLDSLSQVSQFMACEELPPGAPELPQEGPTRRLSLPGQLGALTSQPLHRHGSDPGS

The assay addresses human ether-à-go-go-related gene (hERG) potassium channel (human, UniProt Q12809). Nature of the assay: primary screen, population patch clamp on CHO cells stably expressing hERG.
As for `COc1cccc(C(=O)/C=C/c2ccc(N3CCCCC3)c([N+](=O)[O-])c2)c1`, the “hERG current change (%, negative = inhibition) at 10uM” value is on record as -3.01%.
For `Cl.O=C(CCN1CCOCC1)Nc1ccc(Cl)cc1`, the “hERG current change (%, negative = inhibition) at 10uM” value is listed as 6.33%.
Turning to `COc1ccc(OCC(=O)Nc2cc(NC(=O)COc3ccc(OC)cc3)cc(C(=O)O)c2)cc1`, the “hERG current change (%, negative = inhibition) at 10uM” value came out at 14.6%.
Take `CC(NC(=O)[C@H](C)NC(=O)C1CC(=O)N(c2ccc3c(c2)OCO3)C1)c1ccccc1` (stereo partly shown): the “hERG current change (%, negative = inhibition) at 10uM” value was 9.33%.
For the compound `COc1ccc(NC(=O)c2cccc(NC(=O)C3C4CC5OC(=O)C3C5C4)c2)c(OC)c1` (stereo not shown), the “hERG current change (%, negative = inhibition) at 10uM” value is reported as 10.8%.
Regarding `COc1ccc(C(=O)C2CCCN(Cc3cnc(N4CCOCC4)s3)C2)c(OC)c1` (stereo not shown), the “hERG current change (%, negative = inhibition) at 10uM” value is on record as -46.9%.
As to `O=C(Cc1ccc(Cl)cc1)Nc1ccc(NC(=O)c2ccccc2)cc1`, the “hERG current change (%, negative = inhibition) at 10uM” value amounted to 36.8%.
As for `COc1ccc(NC(=O)C2CC(c3cccc(Br)c3)=NO2)cc1OC` (stereo not shown), the “hERG current change (%, negative = inhibition) at 10uM” value is 17.9%.
Take `Cc1ccc(N2CCN(CC(O)COc3cccc4ccccc34)CC2)cc1` (stereo not shown): the “hERG current change (%, negative = inhibition) at 10uM” value is given as -25.1%.
The result for `C=CCNC(=O)[C@H]1N2C(=O)c3ccccc3C2SC1(C)C` (stereo partly shown) reads 21.1%.
Turning to `C=CCN(C(=O)CNC(=O)c1ccco1)C(C(=O)NC1CCCCC1)c1cccnc1` (stereo not shown), the “hERG current change (%, negative = inhibition) at 10uM” value came out at 4.68%.
For the compound `COc1ccc(S(=O)(=O)N2CCc3ccccc32)cc1C(=O)OCC(=O)c1c(N)n(C)c(=O)n(C)c1=O`, the “hERG current change (%, negative = inhibition) at 10uM” value was found to be 21.1%.
Consider `CCOc1ccccc1N(CC(=O)Nc1ccc(S(=O)(=O)N2CCOCC2)cc1)S(=O)(=O)c1ccccc1`, for which the “hERG current change (%, negative = inhibition) at 10uM” value is on record as 14.3%.
The result for `CN1CCN(C(=O)c2cccn(Cc3ccc(C(F)(F)F)cc3)c2=O)CC1` reads 20.1%.
The result for `COCCN1CCN(c2c(C)c(C)nc3cc(-c4cccc(OC)c4)nn23)CC1` reads -15.6%.
`CS(=O)(=O)NCCOc1ccc(S(=O)(=O)N2CCCc3ccccc32)cc1`: the “hERG current change (%, negative = inhibition) at 10uM” value was -43%.
For `CC(C)NCC(O)COCCOc1ccc(Cl)cc1.Cl` (stereo not shown), the “hERG current change (%, negative = inhibition) at 10uM” value is -10.1%.
Take `COc1ccc2cc3cc(C(=O)NCCCN4CCc5ccccc5C4)sc3nc2c1`: the “hERG current change (%, negative = inhibition) at 10uM” value is -32.7%.
For `O=C(Cn1nnc(-c2ccccc2F)n1)N1CCCCC1`, the “hERG current change (%, negative = inhibition) at 10uM” value came out at 13.6%.
Consider `NC(=O)[C@@H]1CC2(CC(c3cccc(NC(=O)[C@H]4CCC(=O)N4)c3)=NO2)CN1C(=O)COc1ccc(Cl)cc1` (stereo partly shown), for which the “hERG current change (%, negative = inhibition) at 10uM” value was 21.9%.
Take `Cc1ccc(NC(=O)CC(O)(C(F)(F)F)C(F)(F)F)cc1`: the “hERG current change (%, negative = inhibition) at 10uM” value is 11.5%.
As to `COc1cccc(/C=N/NC(=O)c2ccccc2NC(=O)c2ccco2)c1OC`, the “hERG current change (%, negative = inhibition) at 10uM” value is on record as -5.89%.
